Laboratory results: patent US20010004460A1, “PROCESS FOR THE PREPARATION OF RICE SEED FOR SOWING” (priority 1995, published 2001)

Test system: rice seeds
Experiment: Seedling growth of pregerminated rice seed coated with gibberellic acid, sown by plane in flooded field
Settings: 3 to 10 days after sowing; compared with classical treatment of rice seed with gibberellic acid

Question: With `C=C1C[C@]23C[C@@]1(O)CC[C@H]2[C@@]12C=C[C@H](O)[C@@](C)(C(=O)O1)[C@H]2[C@@H]3C(=O)O` [gibberellic acid] as the compound, how does the shoot size read?
Answer: about the same size as the shoots obtained with classical treatment
